Screen size: about 44,000 compounds; about 340 (0.77%) were called active. Inconclusive results, whose numbers are uncertain, are shown with a selection of clear calls. The call rests on the fitted dose curve; in most records, active means well fitted inhibition curve with a large enough effect; inconclusive means small, poorly fitted or top-dose-only effect; inactive means flat fitted curve, though single readings scatter. Potencies of inconclusive entries are left out as doubtful fits.
Assay: Acumen qHTS Assay for Inhibitors of the mTORC1 Signaling Pathway in MEF (Tsc2-/-, p53-/-) Cells: Sytravon; further: nearly all actives have a fitted effect of over 50% in size;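 on activity change, negative = inhibition: plate controls were DMSO for no effect and rapamycin for full effect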
Conditions: phospho-rpS6 immunofluorescence/PI, 24 h; series mostly up to 38.3 µM; activity change, negative = inhibition: at the top concentration
Outline: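 Immunofluorescence of rpS6 phosphorylation in Tsc2-/-, p53-/- MEFs after 24 h compound exposure, normalized to propidium iodide signal. Activity is expressed as % positive cells, thresholded with 7.5 nM rapamycin.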
Potency means the concentration at half of the fitted maximal effect; tags describe the fitted curve by direction and shape.

| Compound | activity change, negative = inhibition | Potency |
| --- | --- | --- |
| Cn1nc(C(=O)NCc2cccc(Cl)c2)c2c1-c1ccccc1S(=O)(=O)C2 | inactive: 2.77% | – |
| COc1cc(CN2CCc3nc(N4CCN(c5ncccn5)CC4)ncc3C2)cc(OC)c1OC | inactive: 14.5% | – |
| CCOc1ccccc1NS(=O)(=O)c1ccc2c(c1)CC(C)N2C(=O)C1CCC1 (centres undefined) | – | inconclusive [falling, partial curve, poor fit] |
| Cc1ccc2c(=O)cc(C(=O)Nc3ccc(S(=O)(=O)N(C)Cc4ccccc4)cc3)oc2c1C | inactive: 0% | – |
| COc1ccc(C(=O)CN2CCN(S(=O)(=O)c3ccc(C(C)C)cc3)CC2)cc1 | inactive: -5.82% | – |
| Cc1ccc(-n2ncc(C(=O)NCCCN3CCc4ccccc4C3)c2C2CCN(C(=O)OC(C)(C)C)CC2)cc1C | – | inconclusive [falling, single point] |
| CCOC(=O)c1c(C)[nH]c(CCC(=O)Nc2cc(C)cc(C)c2)c1C | – | inconclusive [falling, single point] |
| COc1ccc(NC(=O)c2ccco2)cc1NC(=O)COc1ccccc1Cl | – | inconclusive [falling, partial curve] |
| COc1ccc(C2CC(=O)N(CC(=O)Nc3cccc(C)c3C)c3ccccc3S2)cc1OC (centres undefined) | inactive: -6.66% | – |
| Cc1ccc(CSc2nc3cccnc3n2Cc2ccc(C(=O)NCCc3cccs3)cc2)cc1 | inactive: -19.9% | – |
| Cc1nn(C)c2c1c(C(F)(F)F)cc(=O)n2CC(=O)N1CCC(C)CC1 | – | inconclusive [falling, partial curve, poor fit] |
| CCN1CCN(c2cc(C)c3cc(NC(=O)c4ccc(OC)c(OC)c4)ccc3n2)CC1 | – | inconclusive [falling, single point] |
| COc1ccc(C)cc1Nc1nc(N)c2cc(OC)c(OC)cc2n1 | – | inconclusive [falling, single point] |
| Cc1cc(C)c(NC(=O)Cn2c(=O)n(Cc3ccc(C(=O)NCc4ccco4)cc3)c(=O)c3sccc32)c(C)c1 | inactive: -6.1% | – |
| CN(C)CCNC(=O)c1ccc2c(c1)N(Cc1c(F)cccc1Cl)C(=O)c1ccccc1S2 | – | inconclusive [falling, single point] |
| O=C(NCc1ccc(Cl)cc1Cl)c1cccc(N2CCCS2(=O)=O)c1 | – | inconclusive [falling, single point] |
| CCc1ccc(NS(=O)(=O)c2ccc3[nH]c4c(c3c2)CCCCCC4)cc1 | – | inconclusive [falling, single point] |
| CCCCN(C)CCNC(=O)c1cc(-c2ccc(Cl)s2)nc2ccccc12 | – | inconclusive [falling, single point] |
| CCOC(=O)c1c(-c2ccccc2)csc1NC(=O)c1nc(SCC)ncc1Cl | inactive: 2.72% | – |
| Cc1oc2ccc(O)c(CN3CCC(C)CC3)c2c1C(=O)Nc1ccccc1 | – | inconclusive [falling, single point] |
| CCN(CC)c1ccc(NC(=O)CN2C(=O)c3cccnc3Oc3ccccc32)c(C)c1 | inactive: -12.4% | – |
| Cc1cc(C)cc(NS(=O)(=O)c2ccc(-c3cc(C)no3)cc2)c1 | – | inconclusive [falling, single point] |

| Compound | activity change, negative = inhibition | Potency |
| --- | --- | --- |
| CCOc1ccc(-c2cc(C)n3nc(C(=O)Nc4cc(Cl)ccc4O)cc3n2)cc1 | – | inconclusive [falling, partial curve, poor fit] |
| N#Cc1ccccc1Cn1c(=O)n(-c2ccccc2)c(=O)c2c3c(sc21)CCC3 | – | inconclusive [falling, partial curve, poor fit] |
| COc1cccc(/C=C/c2nc3ccccc3c(=O)n2-c2ccc(C)c(C)c2)c1OC | inactive: 5.34% | – |
| O=C(Cn1cc(SCc2ccc(Cl)cc2)c2ccccc21)N1CCCC1 | – | inconclusive [falling, single point] |
| O=C(Nc1ccc(F)cc1)Nc1nnc(SCC(=O)N2CCCCC2)s1 | – | inconclusive [falling, single point] |
| CCOC(=O)c1cnc2ccc(OCC)cc2c1NCCc1ccc(OC)c(OC)c1 | – | inconclusive [falling, partial curve, poor fit] |
| O=C(CSc1nc2ccsc2c(=O)n1-c1ccc(Br)cc1)NCc1ccc(Cl)cc1 | – | inconclusive [falling, full curve, poor fit] |
| Cc1ccc2onc(CNC(=O)N3CCN(c4cc(Cl)ccc4C)CC3)c2c1 | – | inconclusive [falling, partial curve, poor fit] |
| COc1ccc(C(C)=O)cc1CSc1nc(NCc2ccccc2)c2ccccc2n1 | inactive: -7.61% | – |
| COc1ccc(Cn2c(C(=O)O)c(CNCc3ccc(C)o3)c3ccc(OC)cc32)cc1 | – | inconclusive [falling, single point] |
| Cc1ccc(-c2nc(Cn3c(SCc4ccc(F)cc4)nc4cccnc43)c(C)o2)cc1 | inactive: -7.75% | – |
| O=C(CSc1nccn1-c1ccc(F)cc1)Nc1cccc2ccccc12 | – | inconclusive [falling, partial curve, poor fit] |
| CCN(CC)S(=O)(=O)c1ccc2c(c1)N(CC(=O)NCCCN1CCN(c3cc(C)ccc3C)CC1)C(=O)CO2 | – | inconclusive [falling, single point] |
| CN1CCN(C2(CNC(=O)COc3ccc(C(C)(C)C)cc3)CCCCC2)CC1 | – | active: 8.26 µM |
| CCc1ccc(NC(=O)Cn2c(=O)n(CCC(=O)NCCc3ccc(OC)c(OC)c3)c(=O)c3ccccc32)cc1 | inactive: -9.32% | – |
| COc1ccc(N2CCN(C(=O)C3CCCN(S(=O)(=O)c4ccc5c(c4)oc(=O)n5C)C3)CC2)cc1 (centres undefined) | inactive: -1.37% | – |
| COc1ccc(OC)c(NC(=O)c2nnn(CC(=O)Nc3ccc(C(C)C)cc3)c2N)c1 | – | active: 16.5 µM |
| Cc1ccc(NC(=O)c2ccc(-c3ccccc3)s2)cc1 | inactive: 0.493% | – |
| CCC1CCCCN1CCCNC(=O)c1ccc2c(c1)N(Cc1cccc(Cl)c1)C(=O)c1ccccc1S2(=O)=O (centres undefined) | – | inconclusive [falling, single point] |
| O=C(Nc1ccc2oc(-c3ccc(Br)cc3)nc2c1)c1cc2ccccc2o1 | inactive: 0.165% | – |
| Cc1cc(C)cc(NCc2nnc3n2CCCCC3)c1 | inactive: -25.8% | – |
| CC(=O)N1CCc2cc(Br)cc(S(=O)(=O)CCC(=O)NCc3ccc(F)cc3)c21 | inactive: -6.97% | – |

| Compound | activity change, negative = inhibition | Potency |
| --- | --- | --- |
| CCc1ccc(C(=O)c2cn(CC(=O)Nc3ccc4c(c3)OCO4)c3ccc(Cl)cc3c2=O)cc1 | – | inconclusive [falling, full curve, poor fit] |
| COc1ccc2ncc3c(-c4ccc(C)c(C)c4)nn(CC(=O)Nc4ccccc4)c3c2c1 | – | inconclusive [falling, single point] |
| COc1ccc(NC(=O)Cn2c(=O)n(-c3ccc(OC)cc3)c(=O)c3sc4ccccc4c32)cc1 | – | inconclusive [falling, single point] |
| COc1cc(C(=O)Nc2cc(C)c(O)c(-c3nc4ccccc4s3)c2)cc(OC)c1OC | – | inconclusive [falling, single point] |
| Cc1ccc(S(=O)(=O)c2nnn3c2nc(N2CCCC2)c2sccc23)cc1 | inactive: -3.5% | – |
| CC1Cc2cc(S(=O)(=O)NCCc3ccccc3)ccc2N1C(=O)C1CCC1 (centres undefined) | – | inconclusive [falling, partial curve, poor fit] |
| COc1ccc(CNCCC(c2ccccc2)c2ccc3c(c2)OCO3)cc1 (centres undefined) | – | inconclusive [falling, single point] |
| CCCC1=Nc2cc(C(=O)NCCc3ccccc3)ccc2Sc2ccc(C)cc21 | – | inconclusive [falling, partial curve, poor fit] |
| COc1ccc(-c2cnn3c(C)cc(C)nc23)cc1OC | – | inconclusive [falling, full curve, poor fit] |
| CCOc1ccc(-c2nc(SCC(=O)NC3CCCC3)c(-c3ccccc3)[nH]2)cc1OC | – | inconclusive [falling, partial curve, poor fit] |
| Cc1ccc(-c2noc(CCCC(=O)NCc3ccco3)n2)cc1 | – | inconclusive [falling, single point] |
| COc1cc(C(=O)N2CCc3c([nH]c4ccccc34)C2c2ccc(C)cc2)cc(OC)c1OC (centres undefined) | – | inconclusive [falling, single point] |
| COc1ccc(C)cc1NC(=O)Cn1c(=O)ccc2cc(S(=O)(=O)N3CCC(C)CC3)ccc21 | – | inconclusive [falling, single point] |
| CCCCN1C(C(=O)c2ccccc2)=C(OC(C)=O)c2ccccc2S1(=O)=O | – | inconclusive [falling, single point] |
| Cc1cccc(OCCn2c(SCC(=O)O)nc3ccccc32)c1 | inactive: -5.62% | – |
| CCOc1ccc(OCC)c(NS(=O)(=O)c2ccc(-c3coc(C)n3)cc2)c1 | – | inconclusive [falling, partial curve, poor fit] |
| Cc1ccc(O)c(NC(=O)c2cc(-c3ccccc3O)no2)c1 | – | inconclusive [falling, single point] |
| COc1cc(NC(=O)c2cn(C3CCCC3)c(=O)c3c2c2ccccc2n3C)cc(OC)c1OC | – | inconclusive [falling, partial curve, poor fit] |
| Cc1ccc(C)c(N2CCN(CCCNC(=O)c3cnn(-c4ccccc4Cl)c3C3CCN(C(=O)OC(C)(C)C)CC3)CC2)c1 | – | inconclusive [falling, single point] |
| Cc1ccc(C(=O)Nc2ccc(NC(=O)c3cccs3)cc2)cc1C | – | inconclusive [falling, single point] |

From PubChem BioAssay AID493208 (National Center for Advancing Translational Sciences (NCATS), 2011)
